About 14,000 (4.5%) of roughly 310,000 compounds showed an effect of 50% or more. The effect is printed as a negative number. This is one part of the list.
target: human ether-à-go-go-related gene (hERG) potassium channel (human, UniProt Q12809); test: primary screen, population patch clamp on CHO cells stably expressing hERG
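Further: peak tail current of the secondary pulse compared with the same well before compound.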

Sequence of human ether-à-go-go-related gene (hERG) potassium channel (Q12809 whole entry, looked up): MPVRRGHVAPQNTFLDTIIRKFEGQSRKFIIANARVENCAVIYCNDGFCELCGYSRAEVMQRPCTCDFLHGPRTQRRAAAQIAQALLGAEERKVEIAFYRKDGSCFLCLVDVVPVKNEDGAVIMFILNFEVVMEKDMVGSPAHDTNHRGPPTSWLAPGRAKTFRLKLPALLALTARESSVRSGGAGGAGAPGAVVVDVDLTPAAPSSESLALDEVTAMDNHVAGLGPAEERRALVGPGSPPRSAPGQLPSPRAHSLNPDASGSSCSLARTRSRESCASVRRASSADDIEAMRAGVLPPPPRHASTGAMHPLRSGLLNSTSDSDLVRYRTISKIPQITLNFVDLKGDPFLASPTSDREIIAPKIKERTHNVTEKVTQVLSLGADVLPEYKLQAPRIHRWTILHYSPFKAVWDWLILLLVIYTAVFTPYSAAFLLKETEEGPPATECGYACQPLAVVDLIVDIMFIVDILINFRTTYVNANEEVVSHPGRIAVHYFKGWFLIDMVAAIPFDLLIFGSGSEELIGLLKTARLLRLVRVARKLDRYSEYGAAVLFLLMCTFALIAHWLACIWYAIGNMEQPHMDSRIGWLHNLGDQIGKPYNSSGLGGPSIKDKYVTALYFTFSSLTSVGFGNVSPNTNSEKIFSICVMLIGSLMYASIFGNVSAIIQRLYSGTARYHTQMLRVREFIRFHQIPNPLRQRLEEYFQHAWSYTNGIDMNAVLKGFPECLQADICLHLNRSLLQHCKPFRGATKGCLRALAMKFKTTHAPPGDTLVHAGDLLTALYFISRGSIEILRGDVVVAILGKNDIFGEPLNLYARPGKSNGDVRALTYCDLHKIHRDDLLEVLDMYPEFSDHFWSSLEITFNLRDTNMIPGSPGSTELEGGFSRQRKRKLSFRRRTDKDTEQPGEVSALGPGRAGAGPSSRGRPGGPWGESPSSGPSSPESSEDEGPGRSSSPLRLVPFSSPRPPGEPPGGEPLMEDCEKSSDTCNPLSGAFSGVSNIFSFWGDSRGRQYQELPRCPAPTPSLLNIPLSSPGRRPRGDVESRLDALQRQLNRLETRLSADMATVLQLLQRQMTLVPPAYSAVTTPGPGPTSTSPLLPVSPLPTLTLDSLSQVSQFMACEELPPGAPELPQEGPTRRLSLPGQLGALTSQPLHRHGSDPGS

Compound | hERG current change (%, negative = inhibition) at 10uM
Cc1c(NS(=O)(=O)c2ccc([N+](=O)[O-])cc2)c(=O)n(-c2ccccc2)n1C | 12.2%
Cc1cc2cc3c(cc2nc1SCC(=O)Nc1c(C)cccc1C)CCC3 | -9.05%
Cc1ccc(SCC(=O)c2sc(-c3ccccc3)nc2C)cc1 | 1.92%
CCOc1ccc(C2C=C(c3ccc(C)cc3)Nc3nnnn32)cc1 (centres unmarked) | -14.4%
O=C(c1ccc2ncsc2c1)N1CCN(c2ccccc2Cl)CC1 | -19.4%
CCOc1ccccc1N1CCN(C(=O)CNC(=O)c2sc3ccccc3c2Cl)CC1 | 17.4%
O=C(CN1C(=O)NC2(CCc3ccccc32)C1=O)NCc1ccccc1Cl (centres unmarked) | 7.01%
O=C(NC1CCN(Cc2ccccc2)CC1)C1CCN(S(=O)(=O)c2cccc3nsnc23)CC1 | -23.7%
O=C(Cc1ccc(Br)cc1)Nc1ncc([N+](=O)[O-])s1 | 11.7%
O=C(Oc1ccc(-c2nnco2)cc1)C1CCN(C(=O)c2ccc(F)cc2)CC1 | -8.94%
Cc1ccc2oc(=O)n(Cc3ccc(F)cc3)c2c1 | 1.59%
Cn1nc(/C=C/c2ccccc2)ccc1=O | 6.6%
Cc1cc(C(=O)Nc2ccc3c(c2)OCCO3)c(C)o1 | 4.25%
Cc1cc(F)ccc1S(=O)(=O)Nc1ncnc2sccc12 | 15.4%
O=C(N/N=C/c1ccccc1Br)C1CC1 | 40.1%
Cc1ccc(C(=O)Nc2ccccc2C(=O)O)cc1S(=O)(=O)Nc1ccc(Br)cc1 | 21.3%
O=C(c1ccc([N+](=O)[O-])o1)N1CCc2ccccc21 | 6.67%
Cc1nc(CC(=O)NNS(=O)(=O)c2ccc3ccccc3c2)cs1 | 16.9%
Cc1ccc(N2CC(NS(=O)(=O)c3cccnc3)CC2=O)cc1 (centres unmarked) | -7.5%
N#Cc1ccc(NC(=O)COC(=O)CCc2nc3ccccc3c(=O)[nH]2)cc1 | -4.6%
CCCCCN(C(=O)CCC(=O)OCCOc1cccc(Cl)c1)c1c(N)n(CCCC)c(=O)[nH]c1=O | -0.473%
Cc1cc(C(=O)Nc2cccc(S(=O)(=O)N3CCCCC3)c2)c2ccccc2n1 | -4.54%
O=C(c1cccc(N2C(=O)C3C4C=CC(C4)C3C2=O)c1)N1CCCCCC1 (centres unmarked) | -11.4%

Compound | hERG current change (%, negative = inhibition) at 10uM
COc1ccccc1N1CCN(C(=O)c2ccc3[nH]c(C)c(C)c3c2)CC1 | 8.04%
CN1CCN(c2nc3ccccc3nc2C(C#N)C(=O)OC2CCCCC2)CC1 (centres unmarked) | -79.5%
Cn1cc([N+](=O)[O-])c(C(=O)N(Cc2ccccc2)Cc2ccccc2)n1 | -7.1%
NC(=O)COC(=O)c1cc(S(=O)(=O)N2CCN(c3ccccc3)CC2)ccc1Cl | 14.3%
Cc1c(C(=O)Nc2ccc(S(=O)(=O)N(C)C3CCN(C)CC3)cc2)oc2c(Cl)cccc12 | -16.9%
CCN(Cc1ccccc1)C(=S)NC(=O)c1ccccc1Br | -3.74%
COc1ccc(S(=O)(=O)n2nc(OC(=O)c3ccccc3)cc2N)cc1 | 12.1%
COC(=O)c1c(NC(=O)CN2C(=O)NC3(CCC(C(C)(C)C)CC3)C2=O)sc2c1CCCCC2 (centres unmarked) | 18.9%
O=C(O)CCSCCC(=O)O | 17.9%
Cc1c(NS(=O)(=O)c2ccc(NC(=O)CCC(=O)O)cc2)c(=O)n(-c2ccccc2)n1C | 20.9%
COc1ccc(N2CCN(C(=O)c3ccc(COc4ccc5c(C)cc(=O)oc5c4)cc3)CC2)cc1 | -5.04%
CCOC(=O)c1ccc(CNC(=O)Cn2nnc(-c3ccccc3)n2)o1 | 1.92%
CC(C(=O)NN)n1nnc(N2CCOCC2)n1 (centres unmarked) | 10.3%
CC(=O)Oc1cccc(N2C(=O)C3C4C=CC(C4)C3C2=O)c1 (centres unmarked) | 0.674%
Nc1cc(OCC(F)(F)F)cc(OCC(F)(F)F)c1 | 9.19%
O=C(CCOc1ccccc1)OCC(=O)c1cc2ccccc2o1 | -10.3%
CCn1c(SCC(=O)NCc2ccco2)nnc1C1CCCC1 | 13%
O=C(COC(=O)c1ccc(O)cc1)NC(=O)NCc1ccccc1 | -7.67%
C=CCn1c(SCc2ccc(C#N)cc2)nnc1-c1ccc(C)cc1 | -71.3%
COC(=O)c1ccc(COC(=O)c2cnccn2)cc1 | -2.76%
CC1(C)Cc2nc3sc4c(SCC(=O)NCc5ccccc5)ncnc4c3cc2CO1 | -27.5%
O=C(Nc1ccnc(-c2cccnc2)n1)c1ccccc1Cl | 0.772%
COc1cccc(NC(=O)CCN2C(=O)c3cccc([N+](=O)[O-])c3C2=O)c1 | -3.85%

Compound | hERG current change (%, negative = inhibition) at 10uM
O=S(=O)(c1ccc(F)cc1)n1ccc2cccnc21 | -0.0309%
Cc1ccc(C(=O)Nc2cc(S(=O)(=O)N3CCOCC3)ccc2N2CCCC2)cc1 | -8.42%
Cc1ccc(C(=O)C2=C(O)C(=O)N(c3ncccn3)C2c2ccc(Br)cc2)o1 (centres unmarked) | 13.6%
COc1ccc(NC(=O)CSc2cccc3cccnc23)c(OC)c1 | -7.79%
CCc1nnc(NC(=O)c2nc(S(=O)(=O)Cc3ccc(C)cc3)ncc2Cl)s1 | 16.1%
Cc1nc2ccccc2n1S(=O)(=O)c1ccc(Br)cc1 | -2.34%
Fc1ccccc1CN1CCCC(NC2CCC2)C1 (centres unmarked) | 10.4%
CC(CNC(=O)COc1ccccc1)OC(=O)Nc1cccc(Cl)c1 (centres unmarked) | -19%
COc1ccccc1CNS(=O)(=O)c1ccc2[nH]cc(C(=O)O)c(=O)c2c1 | 20.8%
CC(C)C1OC(c2cccc(NC(=O)c3cccs3)c2)OCC1(C)C (centres unmarked) | -7.71%
Cc1ccc(-c2cc(C(F)F)n3ncc(C(=O)N4CCN(c5cccc(C)c5C)CC4)c3n2)cc1 | 2.05%
O=C(Nc1cnccn1)Nc1ccccc1Cl | 2.58%
O=C(NCC1CCCCC1)c1cccc([N+](=O)[O-])c1 | 9.98%
CC(=O)N1c2ccc(S(=O)(=O)NCCC(=O)NCCc3ccc(C)cc3)cc2CC1C (centres unmarked) | -8.29%
COc1ccc(C)cc1S(=O)(=O)N(C)CC(=O)N1CCCCC1 | 8.01%
O=C(COC(=O)c1cnccn1)Nc1ccc2c(c1)OCO2 | 7.23%
O=S(=O)(c1cccs1)n1cccn1 | 3.83%
COc1ccc(C(=O)OCC(=O)NC(=O)NCc2ccccc2)cc1[N+](=O)[O-] | -1.9%
CCOc1ccccc1CNCCOC.Cl | 1.1%
CCOC(=O)c1cc(-c2ccc(OC)cc2)n(CCC(=O)NCCN2CCC(C)CC2)c1C | -52.4%
COc1cc(/C=N/NC(=O)C(C)Nc2n[nH]c(=O)[nH]c2=O)cc(OC)c1O (centres unmarked) | 15%
COc1cc(/C=C2/SC(=S)N(CC(=O)Nc3cccnc3)C2=O)cc(OC)c1OC | 7.93%
CCN(CC)S(=O)(=O)c1ccc(NC(=O)c2ccc(OCC3CCCO3)cc2)cc1 (centres unmarked) | -7.56%

Compound | hERG current change (%, negative = inhibition) at 10uM
COc1ccccc1N=NC1C(=O)N(C(N)=S)N=C1C (centres unmarked) | 14.1%
Cc1ccc(CNCCc2ccccc2F)cc1.Cl | -31.8%
Cc1ccn2cc(CSc3ccccc3)nc2c1 | -3.72%
CCOc1ccc(C(=O)N(Cc2ccc(OC)cc2)Cc2cc3cc(OC)ccc3[nH]c2=O)cc1 | -6.99%
Cc1cccc(OCC(=O)N/N=C/c2ccc(N(C)C)cc2)c1 | -6.97%
Nn1cc(-c2ccccc2)nc1SCC(=O)N1CCN(S(=O)(=O)c2ccc3ccccc3c2)CC1 | -17.2%
O=C(NCC(=O)N1CCCC1)c1ccccc1F | 13.8%
CCC(C)Cn1c(C(C)C)nc2ccccc21 (centres unmarked) | -11.3%
CCOc1c(Cl)cc(CNC(C)(C)CC(C)(C)C)cc1OC.Cl | -13.2%
O=C(NC(=S)NCCCN1CCOCC1)c1cccc2ccccc12 | 12.6%
COc1ccc(C(=O)Nc2ccc(S(=O)(=O)Nc3cnc4ccccc4n3)cc2)cc1 | 6.26%
CC(C)n1cc(CN2CCC(C(=O)Nc3ccc(Oc4ccccc4F)cc3)CC2)cn1 | -76.1%
COc1ccc(-c2nnc(SCC(C)C)o2)cc1 | -24.5%
COc1ccc(N2CCC(CNC(=S)Nc3cccc(OC)c3)C2)cc1 (centres unmarked) | -2.4%
c1ccc2sc(NC3=NCN(C4CCCCC4)CN3)nc2c1 | -11%
CNc1nc(Nc2ccc(Br)cc2)nc(N)c1[N+](=O)[O-] | 1.45%
COC(=O)Cc1csc(N)n1.Cl | 2.11%
CCOc1ccccc1N(CC(=O)Nc1ccc(S(=O)(=O)N2CCOCC2)cc1)S(C)(=O)=O | -20.3%
O=C(COC(=O)c1n[nH]c2ccccc12)NCCc1ccc(Cl)cc1 | -3.3%
O=C(NCCCn1ccnc1)c1cc(C(=O)C2CC2)c[nH]1 | 5.65%

Reference: publication PMC4336329 (PLoS ONE, 2015)
